No constants are given. Whether binding was seen depends on the method and setting. For part of these data: Binding seen in cells or lysates may run through a third protein. Some binding calls cover weakened binding; strength is not graded here. For part of these data: Sequences can lack the tags named with a protein.
How the values were obtained:
Snf2-Myc (S. cerevisiae) = Snf2-Myc (S. cerevisiae) (UniProt P22082); assay: co-IP; yeast lysate in TMG 50 (10 mM Tris-HCl pH 8.0, 50 mM NaCl, 10% glycerol); Myc-tagged Snf2 precipitated overnight with 9E10 antibody and protein-G dynabeads; blot with anti-Set1 antibodies
GST-Mcm2 (S. cerevisiae) = GST-Mcm2 (S. cerevisiae) (UniProt P29469); assay: pull-down; GST fusion proteins as baits, 35S-labeled in vitro-translated proteins as preys; autoradiography; only the target purified
[1] = target: GST-Snf2C-Bromo (S. cerevisiae) (UniProt P22082); assay: pull-down; GST-tagged Snf2 fragments (250 nM) on glutathione-Sepharose 4B with SET1C or C762SET1C (25 nM), BSA 0.2 mg/ml; 20 mM Tris-Cl pH 7.9, 150 mM NaCl, 0.2 mM EDTA, 20% glycerol, 0.1% NP-40; 4°C, 3 hr; immunoblotting; both purified
[2] = target: GST-Snf2C-AT-hook (S. cerevisiae) (UniProt P22082); assay: as above
GST-Sdc1 (S. cerevisiae) = target: T1, GST-Sdc1 (S. cerevisiae) (UniProt Q03323); assay: pull-down; GST fusion proteins as baits, 35S-labeled in vitro-translated proteins as preys; autoradiography; only the target purified
T1 sequence: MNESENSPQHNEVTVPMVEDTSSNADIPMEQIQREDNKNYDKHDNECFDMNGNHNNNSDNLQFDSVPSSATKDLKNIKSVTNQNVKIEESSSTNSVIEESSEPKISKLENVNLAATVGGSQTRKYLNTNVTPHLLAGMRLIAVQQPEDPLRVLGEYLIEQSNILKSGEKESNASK

Amino acid sequences for entries named in this document (tags omitted). A change or cut given only in a name is not applied to a line headed by its entry. Residues count along the entry.
UniProt P22082: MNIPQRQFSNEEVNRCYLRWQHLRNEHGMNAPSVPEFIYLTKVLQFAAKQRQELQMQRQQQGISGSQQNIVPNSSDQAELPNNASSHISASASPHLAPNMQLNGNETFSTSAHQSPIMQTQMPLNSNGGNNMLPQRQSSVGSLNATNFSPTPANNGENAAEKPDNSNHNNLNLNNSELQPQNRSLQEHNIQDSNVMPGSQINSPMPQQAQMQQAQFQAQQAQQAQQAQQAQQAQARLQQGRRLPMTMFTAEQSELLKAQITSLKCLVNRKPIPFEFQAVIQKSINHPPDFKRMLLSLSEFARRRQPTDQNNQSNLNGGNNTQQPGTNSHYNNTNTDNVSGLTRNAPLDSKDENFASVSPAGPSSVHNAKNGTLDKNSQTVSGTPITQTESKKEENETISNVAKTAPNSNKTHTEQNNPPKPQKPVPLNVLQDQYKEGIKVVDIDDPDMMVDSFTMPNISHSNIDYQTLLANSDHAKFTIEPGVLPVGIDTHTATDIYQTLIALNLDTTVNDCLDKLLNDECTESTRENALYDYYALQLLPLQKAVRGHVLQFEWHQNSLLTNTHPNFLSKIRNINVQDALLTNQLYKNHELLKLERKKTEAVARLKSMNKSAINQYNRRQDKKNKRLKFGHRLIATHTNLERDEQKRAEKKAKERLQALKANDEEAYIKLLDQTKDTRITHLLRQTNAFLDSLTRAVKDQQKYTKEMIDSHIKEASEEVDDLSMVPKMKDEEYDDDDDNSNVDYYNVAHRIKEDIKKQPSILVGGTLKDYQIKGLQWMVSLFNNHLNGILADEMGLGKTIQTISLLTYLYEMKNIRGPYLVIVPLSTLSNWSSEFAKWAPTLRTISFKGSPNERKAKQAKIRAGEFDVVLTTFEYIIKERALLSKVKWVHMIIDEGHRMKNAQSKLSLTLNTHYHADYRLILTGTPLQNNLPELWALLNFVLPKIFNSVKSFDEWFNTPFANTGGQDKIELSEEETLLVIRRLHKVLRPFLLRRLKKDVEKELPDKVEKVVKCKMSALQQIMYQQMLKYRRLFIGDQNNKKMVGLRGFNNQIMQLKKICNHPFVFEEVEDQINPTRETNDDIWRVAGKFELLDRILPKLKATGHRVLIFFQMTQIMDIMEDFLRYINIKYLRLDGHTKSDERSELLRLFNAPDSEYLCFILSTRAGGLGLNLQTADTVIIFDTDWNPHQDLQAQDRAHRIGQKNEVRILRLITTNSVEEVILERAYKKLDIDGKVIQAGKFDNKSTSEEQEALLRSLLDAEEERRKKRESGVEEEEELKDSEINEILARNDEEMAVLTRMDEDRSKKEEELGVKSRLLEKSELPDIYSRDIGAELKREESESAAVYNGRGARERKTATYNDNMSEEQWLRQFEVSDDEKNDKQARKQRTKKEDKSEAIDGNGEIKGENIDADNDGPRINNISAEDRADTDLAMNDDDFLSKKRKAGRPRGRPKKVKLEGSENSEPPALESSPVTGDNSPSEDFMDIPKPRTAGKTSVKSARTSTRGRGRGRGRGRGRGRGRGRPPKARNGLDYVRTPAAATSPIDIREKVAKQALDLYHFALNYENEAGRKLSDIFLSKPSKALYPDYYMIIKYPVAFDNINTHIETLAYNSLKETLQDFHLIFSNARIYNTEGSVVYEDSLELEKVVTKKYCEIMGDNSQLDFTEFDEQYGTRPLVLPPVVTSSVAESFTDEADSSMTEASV
GST-Snf2C-AT-hook: residues 1384-1547 of P22082
GST-Snf2C-Bromo: residues 1542-1655 of P22082
UniProt P29469: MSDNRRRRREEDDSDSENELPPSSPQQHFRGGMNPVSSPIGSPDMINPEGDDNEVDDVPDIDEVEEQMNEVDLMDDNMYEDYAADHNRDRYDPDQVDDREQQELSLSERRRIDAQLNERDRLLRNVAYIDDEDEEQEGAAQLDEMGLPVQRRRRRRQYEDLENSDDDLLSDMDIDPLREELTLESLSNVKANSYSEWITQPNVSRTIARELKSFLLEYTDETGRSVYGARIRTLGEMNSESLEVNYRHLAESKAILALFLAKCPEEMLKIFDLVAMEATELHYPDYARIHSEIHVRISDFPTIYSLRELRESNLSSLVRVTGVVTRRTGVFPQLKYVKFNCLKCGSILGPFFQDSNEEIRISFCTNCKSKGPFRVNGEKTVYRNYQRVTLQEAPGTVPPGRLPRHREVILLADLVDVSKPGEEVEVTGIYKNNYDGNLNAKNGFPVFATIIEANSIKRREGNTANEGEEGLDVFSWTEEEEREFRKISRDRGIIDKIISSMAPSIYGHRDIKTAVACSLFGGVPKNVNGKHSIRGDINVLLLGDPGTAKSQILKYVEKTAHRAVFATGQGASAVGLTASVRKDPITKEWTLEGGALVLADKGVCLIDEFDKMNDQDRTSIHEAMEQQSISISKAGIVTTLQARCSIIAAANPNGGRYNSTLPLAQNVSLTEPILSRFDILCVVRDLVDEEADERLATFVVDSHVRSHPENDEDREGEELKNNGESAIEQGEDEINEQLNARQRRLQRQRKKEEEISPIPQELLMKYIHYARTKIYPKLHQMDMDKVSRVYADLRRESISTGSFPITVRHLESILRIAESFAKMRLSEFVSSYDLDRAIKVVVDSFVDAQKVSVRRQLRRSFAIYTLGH
UniProt P38827: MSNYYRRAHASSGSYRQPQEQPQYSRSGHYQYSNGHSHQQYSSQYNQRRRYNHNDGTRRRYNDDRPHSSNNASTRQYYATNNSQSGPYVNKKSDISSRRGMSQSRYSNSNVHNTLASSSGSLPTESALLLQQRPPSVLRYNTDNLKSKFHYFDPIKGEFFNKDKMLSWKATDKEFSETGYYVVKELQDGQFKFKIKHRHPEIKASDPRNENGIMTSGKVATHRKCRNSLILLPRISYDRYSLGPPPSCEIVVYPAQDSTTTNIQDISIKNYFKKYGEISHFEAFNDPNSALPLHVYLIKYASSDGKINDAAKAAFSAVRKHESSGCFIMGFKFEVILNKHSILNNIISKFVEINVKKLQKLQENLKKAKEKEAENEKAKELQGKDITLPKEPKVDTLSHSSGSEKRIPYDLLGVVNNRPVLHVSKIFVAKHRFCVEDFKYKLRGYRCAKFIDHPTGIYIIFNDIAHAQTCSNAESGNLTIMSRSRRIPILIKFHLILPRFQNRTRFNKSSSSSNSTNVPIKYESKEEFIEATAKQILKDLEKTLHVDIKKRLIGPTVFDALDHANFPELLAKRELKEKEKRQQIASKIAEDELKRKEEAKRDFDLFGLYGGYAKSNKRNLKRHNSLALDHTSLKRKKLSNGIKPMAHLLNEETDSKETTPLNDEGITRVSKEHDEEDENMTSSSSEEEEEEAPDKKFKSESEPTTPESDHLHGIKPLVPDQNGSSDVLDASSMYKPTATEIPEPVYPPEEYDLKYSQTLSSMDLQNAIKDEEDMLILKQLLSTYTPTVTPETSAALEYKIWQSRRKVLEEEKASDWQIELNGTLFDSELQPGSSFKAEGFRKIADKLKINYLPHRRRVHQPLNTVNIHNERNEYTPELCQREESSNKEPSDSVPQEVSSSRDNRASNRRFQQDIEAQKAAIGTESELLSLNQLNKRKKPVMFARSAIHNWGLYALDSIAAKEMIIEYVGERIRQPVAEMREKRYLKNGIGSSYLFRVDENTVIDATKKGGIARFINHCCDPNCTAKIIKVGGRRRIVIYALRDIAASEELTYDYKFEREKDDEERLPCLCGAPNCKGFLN
UniProt P53939: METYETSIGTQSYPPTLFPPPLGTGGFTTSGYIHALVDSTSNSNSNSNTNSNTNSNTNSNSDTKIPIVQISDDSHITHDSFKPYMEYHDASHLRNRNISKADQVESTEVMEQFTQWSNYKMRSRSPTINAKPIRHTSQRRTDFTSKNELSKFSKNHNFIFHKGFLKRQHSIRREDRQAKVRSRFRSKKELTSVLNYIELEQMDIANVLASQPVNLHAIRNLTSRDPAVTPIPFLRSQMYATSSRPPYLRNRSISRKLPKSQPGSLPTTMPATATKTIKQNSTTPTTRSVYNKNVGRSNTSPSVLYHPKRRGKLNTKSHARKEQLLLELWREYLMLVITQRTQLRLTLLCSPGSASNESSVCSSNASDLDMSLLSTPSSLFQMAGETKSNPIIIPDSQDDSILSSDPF

GST-Spp1 (S. cerevisiae) = target: T2, GST-Spp1 (S. cerevisiae) (UniProt Q03012); assay: as above
T2 sequence: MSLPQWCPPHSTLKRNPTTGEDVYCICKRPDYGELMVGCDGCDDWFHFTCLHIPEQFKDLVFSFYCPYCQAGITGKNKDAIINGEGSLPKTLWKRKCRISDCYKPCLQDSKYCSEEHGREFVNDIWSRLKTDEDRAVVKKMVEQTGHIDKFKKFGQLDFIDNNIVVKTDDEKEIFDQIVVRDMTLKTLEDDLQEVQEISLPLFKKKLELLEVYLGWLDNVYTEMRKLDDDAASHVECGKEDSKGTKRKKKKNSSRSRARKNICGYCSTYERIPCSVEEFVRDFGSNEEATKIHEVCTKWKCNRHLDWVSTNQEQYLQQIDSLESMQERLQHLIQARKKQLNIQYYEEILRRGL

GST-Shg1 (S. cerevisiae) = target: T3, GST-Shg1 (S. cerevisiae) (UniProt P38337); assay: as above
T3 sequence: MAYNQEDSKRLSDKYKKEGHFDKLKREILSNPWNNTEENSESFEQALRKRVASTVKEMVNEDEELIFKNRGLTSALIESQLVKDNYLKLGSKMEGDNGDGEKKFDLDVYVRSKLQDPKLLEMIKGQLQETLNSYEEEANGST

[3] = target: T4, Sdc1, two-hybrid fusion (S. cerevisiae) (UniProt Q03323); assay: two-hybrid; 10 screens (Hybrigenics) of a genomic S. cerevisiae library in pP6 by mating; baits fused to the Gal4 DNA-binding domain or LexA; selection on medium lacking tryptophan, leucine and histidine, with 3AT if necessary
T4 sequence: T1 sequence

[4] = target: T5, Prp22-AID-6FLAG (S. cerevisiae) (UniProt P24384); assay: co-IP; W303 extract; Prp22-AID-6FLAG precipitated with a FLAG antibody on Protein A/G Dynabeads overnight at 4°C in 50 mM Tris-HCl pH 7.5, 150 mM NaCl, 0.2% NP-40; blot with anti-MYC; in the absence or presence of RNase
T5 sequence: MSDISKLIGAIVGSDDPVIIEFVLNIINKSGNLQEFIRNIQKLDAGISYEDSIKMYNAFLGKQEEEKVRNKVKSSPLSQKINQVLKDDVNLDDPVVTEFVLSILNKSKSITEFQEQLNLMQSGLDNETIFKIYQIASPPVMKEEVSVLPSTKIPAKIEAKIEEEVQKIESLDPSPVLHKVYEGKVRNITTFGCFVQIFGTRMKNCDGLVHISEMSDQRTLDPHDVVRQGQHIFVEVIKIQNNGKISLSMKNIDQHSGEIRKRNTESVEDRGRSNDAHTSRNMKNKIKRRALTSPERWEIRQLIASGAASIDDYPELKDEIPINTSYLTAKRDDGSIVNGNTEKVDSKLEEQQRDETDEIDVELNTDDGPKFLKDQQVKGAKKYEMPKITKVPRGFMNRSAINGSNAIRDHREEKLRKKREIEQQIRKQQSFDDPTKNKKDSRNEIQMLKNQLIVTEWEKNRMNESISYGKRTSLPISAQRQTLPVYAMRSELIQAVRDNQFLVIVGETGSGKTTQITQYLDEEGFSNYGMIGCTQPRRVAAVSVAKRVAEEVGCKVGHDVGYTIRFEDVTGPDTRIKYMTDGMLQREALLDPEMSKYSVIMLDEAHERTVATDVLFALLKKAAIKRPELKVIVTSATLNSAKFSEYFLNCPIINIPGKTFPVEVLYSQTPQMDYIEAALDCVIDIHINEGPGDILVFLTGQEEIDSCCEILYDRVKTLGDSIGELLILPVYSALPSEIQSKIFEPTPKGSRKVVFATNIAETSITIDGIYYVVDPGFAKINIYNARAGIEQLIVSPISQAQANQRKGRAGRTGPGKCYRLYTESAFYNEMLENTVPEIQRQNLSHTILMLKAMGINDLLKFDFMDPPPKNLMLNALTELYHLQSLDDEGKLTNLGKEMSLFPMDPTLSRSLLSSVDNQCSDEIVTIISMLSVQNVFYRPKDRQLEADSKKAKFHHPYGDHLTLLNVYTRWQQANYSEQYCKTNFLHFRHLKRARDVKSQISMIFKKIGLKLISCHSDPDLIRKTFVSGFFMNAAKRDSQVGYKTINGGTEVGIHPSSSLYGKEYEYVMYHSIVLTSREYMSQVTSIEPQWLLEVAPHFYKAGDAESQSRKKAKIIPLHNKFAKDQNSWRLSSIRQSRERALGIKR

[5] = target: T6, Bre2, two-hybrid fusion (S. cerevisiae) (UniProt P43132); assay: two-hybrid; 10 screens (Hybrigenics) of a genomic S. cerevisiae library in pP6 by mating; baits fused to the Gal4 DNA-binding domain or LexA; selection on medium lacking tryptophan, leucine and histidine, with 3AT if necessary
T6 sequence: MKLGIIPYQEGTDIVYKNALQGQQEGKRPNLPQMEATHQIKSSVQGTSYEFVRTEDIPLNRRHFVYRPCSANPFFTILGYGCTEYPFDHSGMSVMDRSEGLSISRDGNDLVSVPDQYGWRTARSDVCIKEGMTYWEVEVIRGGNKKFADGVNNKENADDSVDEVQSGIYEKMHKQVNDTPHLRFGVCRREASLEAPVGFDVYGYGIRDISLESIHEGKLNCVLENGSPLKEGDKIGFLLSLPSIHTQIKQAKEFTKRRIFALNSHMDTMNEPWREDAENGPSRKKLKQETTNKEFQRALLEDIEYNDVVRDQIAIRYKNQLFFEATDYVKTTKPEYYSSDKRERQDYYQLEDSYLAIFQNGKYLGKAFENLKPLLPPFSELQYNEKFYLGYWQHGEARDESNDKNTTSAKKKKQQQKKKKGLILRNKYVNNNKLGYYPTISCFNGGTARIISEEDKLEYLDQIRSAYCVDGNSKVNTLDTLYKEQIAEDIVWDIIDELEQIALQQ

Substance: Set1 (endogenous) (from UniProt P38827 1-1080)
- binding (Snf2-Myc (S. cerevisiae)): binds

Substance: Spp1, in vitro translated (from UniProt Q03012 1-353)
- binding (GST-Mcm2 (S. cerevisiae)): binds weakly

Substance: reconstituted SET1C (FLAG-Set1 and the seven other untagged subunits) (from UniProt P38827 1-1080; P39706 1-426; P36104 1-329; P38123 1-315; P43132 1-505; Q03323 1-175; Q03012 1-353; P38337 1-142) (complex)
- binding [1]: no binding (tested: 250 nM GST fragment, 25 nM complex)

Substance: SET1C762 complex (FLAG-Set1-C762 and the other untagged subunits) (from UniProt P38827 762-1080; P39706 1-426; P36104 1-329; P38123 1-315; P43132 1-505; Q03323 1-175; Q03012 1-353; P38337 1-142)
- binding [1]: no binding (tested: 250 nM GST fragment, 25 nM complex)
- binding [2]: binds

Substance: Nis1, in vitro translated (from UniProt P53939 1-407)
- binding (GST-Sdc1 (S. cerevisiae)): binds
- binding (GST-Spp1 (S. cerevisiae)): binds
- binding (GST-Shg1 (S. cerevisiae)): no binding

Substance: Bre2, two-hybrid fusion (from UniProt P43132 1-505)
- binding [3]: binds

Substance: Myc-Set1 (chromosomally encoded) (from UniProt P38827 1-1080)
- binding [4]: binds

Substance: Mcm2, in vitro translated (from UniProt P29469 1-868)
- binding (GST-Spp1 (S. cerevisiae)): binds weakly

Substance: Sdc1, two-hybrid fusion (from UniProt Q03323 1-175)
- binding [5]: binds

Source: PMC13581290, “A systematic interactome of Saccharomyces cerevisiae SET1C expands its functional landscape and identifies candidate regulatory connections” (eLife, 2026)
